# Screen size: about 310,000 compounds; about 2,200 (0.71%) showed an effect of 50% or more. The effect is printed as a negative number. The list shows a part of the results.
# Molecular target: human ether-à-go-go-related gene (hERG) potassium channel (human, UniProt Q12809)
# Test: primary screen, population patch clamp on CHO cells stably expressing hERG
# Chain of human ether-à-go-go-related gene (hERG) potassium channel (Q12809 whole entry, looked up): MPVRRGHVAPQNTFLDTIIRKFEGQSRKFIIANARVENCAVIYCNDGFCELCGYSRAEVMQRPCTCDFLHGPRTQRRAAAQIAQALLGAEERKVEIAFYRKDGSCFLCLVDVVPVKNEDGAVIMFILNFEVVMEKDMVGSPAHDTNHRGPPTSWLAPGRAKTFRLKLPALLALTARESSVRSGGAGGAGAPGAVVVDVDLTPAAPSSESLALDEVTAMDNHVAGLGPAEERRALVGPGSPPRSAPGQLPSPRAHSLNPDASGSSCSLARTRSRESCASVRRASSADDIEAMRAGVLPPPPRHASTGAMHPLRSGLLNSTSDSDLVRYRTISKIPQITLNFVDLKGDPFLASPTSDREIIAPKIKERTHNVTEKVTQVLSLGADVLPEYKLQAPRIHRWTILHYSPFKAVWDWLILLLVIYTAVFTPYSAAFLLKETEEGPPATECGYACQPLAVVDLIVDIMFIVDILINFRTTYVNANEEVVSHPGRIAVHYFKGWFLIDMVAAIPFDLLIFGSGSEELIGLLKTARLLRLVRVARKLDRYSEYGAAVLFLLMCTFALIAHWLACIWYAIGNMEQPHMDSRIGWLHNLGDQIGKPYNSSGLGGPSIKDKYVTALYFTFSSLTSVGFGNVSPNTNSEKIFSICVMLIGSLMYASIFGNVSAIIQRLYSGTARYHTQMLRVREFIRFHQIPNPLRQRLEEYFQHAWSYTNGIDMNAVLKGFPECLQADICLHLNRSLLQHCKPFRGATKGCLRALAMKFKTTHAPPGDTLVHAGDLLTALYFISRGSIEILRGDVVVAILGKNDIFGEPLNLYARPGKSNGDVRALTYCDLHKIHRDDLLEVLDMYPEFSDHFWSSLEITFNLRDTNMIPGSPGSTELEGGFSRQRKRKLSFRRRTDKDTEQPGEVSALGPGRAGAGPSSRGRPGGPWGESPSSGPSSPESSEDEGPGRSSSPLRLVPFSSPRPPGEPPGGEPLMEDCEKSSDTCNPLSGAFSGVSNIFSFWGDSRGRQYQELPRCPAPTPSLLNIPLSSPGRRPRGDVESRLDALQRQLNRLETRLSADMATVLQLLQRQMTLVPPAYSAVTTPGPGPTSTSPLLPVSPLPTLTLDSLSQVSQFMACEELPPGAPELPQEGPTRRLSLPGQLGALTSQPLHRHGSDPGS
row,SMILES,"hERG current change (%, negative = inhibition) at 1uM [%]"
1,COCCNC(=O)C12CC3CC(CC(Cl)(C3)C1)C2,15
2,NS(=O)(=O)c1ccc(N=Nc2c[nH]c(=O)c(O)c2)cc1,8.36
3,CCOc1ccc(N(CC(=O)NC2CCC(C)CC2)S(=O)(=O)c2c(C)noc2C)cc1 (centres unmarked),12.8
4,Cc1noc(NC(=O)c2ccc(Cl)cc2)c1Cl,12.3
5,C=CCN1C(=O)C(O)(CC(=O)c2ccc(N)cc2)c2ccccc21 (centres unmarked),4.38
6,Clc1cccc(C[n+]2cc(-c3ccccc3)n3c2CCC3)c1.[Br-],-6.51
7,O=C(CC1S/C(=N/N=C/c2c[nH]c3ccc(OCc4ccccc4)cc23)NC1=O)Nc1ccccc1 (centres unmarked),19.5
8,O=C(O)c1ccc(NC(=O)c2cc3ccccc3o2)cc1,13.7
9,O=S(=O)(c1ccc(-c2n[nH]c(=S)o2)cc1)N1CCCC1,32.4
10,COc1cc(NC(=O)c2ccccc2Cl)ccc1NC(=O)c1ccco1,-0.127
11,CNC(=O)C(=O)NCC1OCCCN1S(=O)(=O)c1ccc2c(c1)OCCO2 (centres unmarked),-0.612
12,Cc1ccnc2nc(C(=O)OCC(=O)NCCc3ccccc3)nn12,10.8
13,O=C(CN1CCCC1)Nc1nnc(-c2cccs2)s1,2.52
14,Cc1ccc(C(=O)c2c3ccc(N)cc3nn2CCC(N)=O)cc1,15.9
15,COc1ccc(C(CC(=O)N2CCOCC2)c2c(OC)cc(OC)c3ccc(=O)oc23)cc1 (centres unmarked),4.89
16,CC(=O)N1CCN(S(=O)(=O)c2cccc(C(=O)Nc3cc(C(F)(F)F)ccc3N3CCOCC3)c2)CC1,-0.673
17,CN=C(C)C1=C(O)C(C(=O)OC)C(C)(C)CC1=O (centres unmarked),0.737
18,Cc1ccc(Cn2c(C3CCCN3c3nc(-c4ccc(F)cc4)cs3)nc3cc(C(=O)NCCCO)ccc32)cc1 (centres unmarked),16.4
19,Cc1cccc(/N=C/c2nc(-c3ccccc3Br)oc2O)n1,15.8

row,SMILES,"hERG current change (%, negative = inhibition) at 1uM [%]"
1,O=C(Nc1nc(-c2ccc(Oc3ccccc3)cc2)cs1)C1=COCCO1,0.903
2,CCN(CC)c1cc(Cl)nc(N)n1,13
3,COC(=O)CSc1ncc(C#N)c(N)n1,0.696
4,CCOC(=O)N1CCN(C(=O)CS(=O)(=O)c2cn(Cc3cccc(F)c3)c3ccccc23)CC1,12.1
5,CCC1(CC)Nc2ccccc2C(=O)N1c1ccc(NC(C)=O)cc1,5.78
6,CCN(CC)S(=O)(=O)c1ccc(NC(=O)COc2c(OC)cccc2OC)cc1,12.3
7,O=C(NCc1ccccn1)C(=O)NCC1OCCN1S(=O)(=O)c1ccc([N+](=O)[O-])cc1 (centres unmarked),2.09
8,Cc1nc2c(=O)[nH]c(=S)n(C)c2nc1C,11.8
9,CCN(CC)c1ccc(C(=O)N/N=C(\C)c2ccc(OC)c(OC)c2)cc1,1.83
10,C/C(CC(=O)Nc1ccc(N(C)C)cc1)=N\NC(=O)c1ccc(F)cc1,12.9
11,CCN(CC)CCNc1c2c(c(C#N)c3nc4ccccc4n13)CCCC2,-3.74
12,COc1ccc(-c2[nH]ncc2CN(C)Cc2cc(C)[nH]n2)c(F)c1,14.8
13,COc1ccc(/C=C/C(=O)Oc2cccc(/C=N/NC(=O)c3cccc(F)c3)c2)cc1,-18.8
14,CCOC(=O)C1(C)/C(=N/Nc2ccccc2Cl)C(=O)C(=O)N1c1ccccc1 (centres unmarked),17.1
15,COc1ccccc1C(=O)N1c2ccccc2Sc2ccccc21,3.13
16,COc1ccc(Br)cc1CN1CCN(C(=O)c2cccc(F)c2)CC1.O=C(O)C(=O)O,-1.74
17,CC(=O)Nc1nonc1NC(C)=O,6.04
18,COc1ccc(-n2c(O)c(C=Nc3ccccc3)c3ccccc3c2=O)cc1OC,-0.129
19,CCN(CC)S(=O)(=O)c1ccc(/C=C/C(=O)OCC(=O)Nc2ccc(C(N)=O)cc2)cc1,14.9

row,SMILES,"hERG current change (%, negative = inhibition) at 1uM [%]"
1,COc1ccc(Cc2nn3c(Cn4nnc5ccccc54)nnc3s2)cc1,8.06
2,Cc1cc(C(=O)COC(=O)CN=C2NS(=O)(=O)c3ccccc32)c(C)n1CCc1ccc(Cl)cc1,15.8
3,O=C(Nc1c2c(nn1-c1ccccc1)CS(=O)(=O)C2)c1ccccc1Br,1.13
4,Cc1cccc(C(=O)Nc2cccc(C(=O)N/N=C/c3ccncc3)c2)c1,-2.35
5,CC(=O)NC(NC(C)=O)c1ccc(Br)cc1,-1.9
6,CCCCNC(=O)CN(c1cccc(F)c1)S(C)(=O)=O,5.09
7,c1ccc(-n2cnc3ccccc32)cc1,5.55
8,Cc1ccnc(NC(=O)COC(=O)C23CC4CC(CC(C4)C2)C3)n1,12.4
9,O=C(c1ccc(S(=O)(=O)N2CCCC2)cc1)N(c1ccc(F)cc1)C1C=CS(=O)(=O)C1 (centres unmarked),-19
10,CSc1ncc(C(=O)Nc2cccnc2)c(C(F)(F)F)n1,12.2
11,Clc1ccccc1C1CC(c2ccccc2)=Nc2ccccc2N1 (centres unmarked),8.9
12,CCC(=O)/C=C1\Sc2ccc(OC)cc2N1CCO,1.53
13,O=c1[nH]c([S-])nc2sc3c(c12)CCCC3.[K+],5.18
14,O=C(NCc1ccccc1)c1nc[nH]c1C(=O)N1CCc2ccccc2C1,12.7
15,CC1CCCCN1S(=O)(=O)c1ccc(NC(=O)c2cccs2)cc1 (centres unmarked),5.12
16,O=c1c(-c2nnc(SCc3ccc(Cl)cc3)o2)cccn1Cc1ccccc1,-2.76
17,CCCn1nnc(NC(=O)c2cccc(OCc3ccccc3)c2)n1,10.8
18,CCCCNC(=O)C(=O)N/N=C/c1ccc(OCC(=O)Nc2cccc(OC)c2)c(OC)c1,-0.917

# Source: paper PMC4336329 (PLoS ONE, 2015)
